Measured values published in the supplement of paper PMC11417369.
± gives the standard deviation of the averaged measurements. Some of the results follow.

Each sequence was assayed on PfAP2-G AP2 domain (GST-tagged) (assay: gcPBM binding intensity (ln(normalized median fluorescence intensity)); higher = stronger DNA binding).
Method in brief: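 Plasmodium falciparum DNA-binding domains carrying a GST tag were expressed in E. coli and applied for 1 h, at about 25 μg on average, to an Agilent 4 × 180k array. The array held primer-extended double-stranded 36-bp intergenic genomic probes together with negative controls, and binding took place in 1× PBS with 1% milk, 0.2 mg/ml BSA, 0.5% salmon testes DNA and 0.03% Triton X-100. An Alexa488 anti-GST antibody detected bound protein, and the array was scanned at 488 nm. Binding intensity is taken as the highest Masliner-normalised natural-log median intensity across replicate spots of either probe orientation.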

Row | Sequence | gcPBM binding intensity (ln)
1 | GTCCCTATAAGGGGAACACACATAAATGGATATATA [CACACA_site6612] | 10.4 ± 0.28
2 | CATATTCATAAAAGTTGTACATGCAATTTTTTTTTT [XGTACX_site2261] | 11.3 ± 0.82
3 | TCAATAAAAAAAAACGCACACACAAATATATTCCAT [CACACA_site1223] | 10.18 ± 0.028
4 | TATTTATGTTCATATAAACACACGTAAAATTCAAGG [CACACA_site1538] | 10.3 ± 0.23
5 | CATTATATGATTTATGTGCACATTCATTTATTTTAA | 10.5 ± 0.2
6 | TATTAATAAAACCGTTGTACTACATACATAAATATT [XGTACX_site5578] | 11.5 ± 0.86
7 | AAAAATCAATTAGAAGAACACACGTAAATTTTTTTT [CACACA_site2396] | 10.03 ± 0.035
8 | ATATATATTATGTGTGTGCACTTTTGTTATTATTAT | 10.3 ± 0.16
9 | ATAACTAAATGATATTGTACAAAATAATTATATATT [XGTACX_site1331] | 10.6 ± 0.3
10 | ATACTATATATATAAGTGCATGTTCATTATACCTAA | 10.04 ± 0.057
11 | TAACATATTTTTAATACACACTTAAAAAAGTACTTA [CACACA_site4875] | 11.3 ± 0.91
12 | TATTACACATATTATACACACATATATTATATATAT [CACACA_site4951] | 10.2 ± 0.2
13 | TCTTCATACGACTAAAAAACATTAGACTGATAAAAA [CACACA_negctrl_site628] | 10.1 ± 0.4
14 | TTAAATTGAATTAGTTAACACACAACTTTTATTTCA [CACACA_site8921] | 9.765 ± 0.092
15 | TAAATCATTTCATGGCATTTACACAAAATTTTTTAA [CACACA_negctrl_site1260] | 9.89 ± 0.042
16 | TTGTGTTTTACATATACATGCAAATTTTTTTTTTTA [TGCATGCA_site303] | 9.7 ± 0.13
17 | ATATATATTTAAAAAAGTACAGAAGAAAATAACCCA [XGTACX_site642] | 11.5 ± 0.75
18 | TATAGCATAAATATGTGTACATATTTATATGATATT [XGTACX_site6333] | 11.4 ± 0.86
19 | TATATATAATATTATACACACATATATGCATAATAT [CACACA_site54] | 9.99 ± 0.17
20 | TATTTATTTATATAAACACACATAAATATAAATATA [CACACA_site6653] | 9.865 ± 0.049
21 | AGTTTAGAATTTAATACACACAAAAAAAAAAAATTA [CACACA_site7698] | 10.1 ± 0.35
22 | AACGTTCAATTTAAATGTACAAATGTATTTAAATAT [XGTACX_site315] | 10.6 ± 0.35

Row | Sequence | gcPBM binding intensity (ln)
23 | AAATACAAAATTGTTACACACATATTAAGTATGACA [CACACA_site4421] | 10 ± 0.13
24 | TACACAAATATATATATATATATATATATATATATA [XGTACX_negctrl_site305] | 10.1 ± 0.91
25 | TTTCTTTTTTCATTTACACACAATAATATAAGAATA [CACACA_site3164] | 10.1 ± 0.19
26 | CTGGAGGATGAAAAAAGTACAAAAGGAGGAAATGTA [XGTACX_site8846] | 11.3 ± 0.9
27 | TATTTTAATTATAAATTTAAAAAAAAAAAGAAAAAA [CACACA_negctrl_site1674] | 9.88 ± 0.28
28 | TGCTTATATATACGTGCACACATATATATAAGATAT [CACACA_site8516] | 10.4 ± 0.3
29 | ATAAATAATGTTGACACACACAATAATCTTATTATG [CACACA_site3593] | 10.3 ± 0.27
30 | CCCCATATAATGAACACACACACTCCTCATAATTAA [CACACA_site628] | 10.8 ± 0.42
31 | ATGTCCTCAATGTTTACACACTCTTTTATATAAGTT [CACACA_site1460] | 11.4 ± 1
32 | AGCTCATGCAGGTGTACACAAAAAGAAAAAAAATAA [CACACA_site4828] | 11.7 ± 0.86
33 | AAAACAAATATATTAACACACAAACATATAAACAAA [CACACA_site6052] | 10.11 ± 0.092
34 | AACATAAATATATATAGTACATATATATATATTCAA [XGTACX_site7287] | 10.9 ± 0.63
35 | ATATAGATCAGACACACACACATGTTTTAAAACTAT [CACACA_site6186] | 10.2 ± 0.11
36 | AAGGAATAATATAAAACACACACATAAATATAAATA [CACACA_site9115] | 9.96
37 | CGAAATATTATGTACGCACACACATTTTTAATATAT [CACACA_site3852] | 11.5 ± 0.76
38 | TATTAATTTATATCAACACACAAAATCAATATACTT [CACACA_site1757] | 9.94 ± 0.16
39 | GTGAAATGGAAAAAAAGTACAGATTACATAAGTATT [XGTACX_site6355] | 11.5 ± 1
40 | AATATATGGTATAATTGTACAAAAAAAAAAAAAAAA [XGTACX_site1476] | 10.8 ± 0.77
41 | TCTTTAATGAACAAATGTACAAGAACAATACCCGCA [XGTACX_site2047] | 11.1 ± 0.42
42 | CTTTAACCTTTTTATTGTACTTTTAATATTTTAAAA [XGTACX_site4457] | 11.4 ± 0.86
43 | TTAATATATTTAAATATATATAAAATATATAATATG [CACACA_negctrl_site880] | 9.695 ± 0.078
44 | AATAAAATAAGAAGCACACAAATATTATATATAAAA [CACACA_site3980] | 9.93 ± 0.042
